According to publication PMC9911399, “Two distinct binding modes provide the RNA-binding protein RbFox with extraordinary sequence specificity”:
Substitutions are numbered along the chain they refer to; changes in the protein carry UniProt numbers. This is one part of the list.

T1: RBFOX1 RRM (Homo sapiens, UniProt Q9NWB1 109-208)
T1 sequence: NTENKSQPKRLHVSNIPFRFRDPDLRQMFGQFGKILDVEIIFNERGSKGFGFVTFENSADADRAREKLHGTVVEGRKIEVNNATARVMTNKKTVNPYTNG

B1: GAUUGAA (DNA:RNA)
RNA: GGGAGACCGGAAUUCAGAUUGUCCGAUUGAAUUAAAUCCCGUCGUAGCCACCA
DNA 1: CAATCTGAATTCCGGTCTCCC
DNA 2: TGGTGGCTACGACGGGATT
B2: CAGCACG (DNA:RNA)
RNA: B1 RNA with G25C, U27G, U28C, G29A, A30C, A31G
DNA 1: CAATCTGAATTCCGGTCTCCC
DNA 2: TGGTGGCTACGACGGGATT
B3: CAUUGUU (DNA:RNA)
RNA: B1 RNA with G25C, A30U, A31U
DNA 1: CAATCTGAATTCCGGTCTCCC
DNA 2: TGGTGGCTACGACGGGATT
B4: AGCAGGG (DNA:RNA)
RNA: B1 RNA with G25A, A26G, U27C, U28A, A30G, A31G
DNA 1: CAATCTGAATTCCGGTCTCCC
DNA 2: TGGTGGCTACGACGGGATT
B5: GGCAGGG (DNA:RNA)
RNA: B1 RNA with A26G, U27C, U28A, A30G, A31G
DNA 1: CAATCTGAATTCCGGTCTCCC
DNA 2: TGGTGGCTACGACGGGATT
B6: AGUAGAU (DNA:RNA)
RNA: B1 RNA with G25A, A26G, U28A, A31U
DNA 1: CAATCTGAATTCCGGTCTCCC
DNA 2: TGGTGGCTACGACGGGATT
B7: UCUGUAC (DNA:RNA)
RNA: B1 RNA with G25U, A26C, U28G, G29U, A31C
DNA 1: CAATCTGAATTCCGGTCTCCC
DNA 2: TGGTGGCTACGACGGGATT
B8: GGCGAGA (DNA:RNA)
RNA: B1 RNA with A26G, U27C, U28G, G29A, A30G
DNA 1: CAATCTGAATTCCGGTCTCCC
DNA 2: TGGTGGCTACGACGGGATT
B9: AUUCUCA (DNA:RNA)
RNA: B1 RNA with G25A, A26U, U28C, G29U, A30C
DNA 1: CAATCTGAATTCCGGTCTCCC
DNA 2: TGGTGGCTACGACGGGATT
B10: CAGAUAC (DNA:RNA)
RNA: B1 RNA with G25C, U27G, U28A, G29U, A31C
DNA 1: CAATCTGAATTCCGGTCTCCC
DNA 2: TGGTGGCTACGACGGGATT
B11: CGAGUAC (DNA:RNA)
RNA: B1 RNA with G25C, A26G, U27A, U28G, G29U, A31C
DNA 1: CAATCTGAATTCCGGTCTCCC
DNA 2: TGGTGGCTACGACGGGATT
B12: ACCAGCC (DNA:RNA)
RNA: B1 RNA with G25A, A26C, U27C, U28A, A30C, A31C
DNA 1: CAATCTGAATTCCGGTCTCCC
DNA 2: TGGTGGCTACGACGGGATT
B13: AAGUGCG (DNA:RNA)
RNA: B1 RNA with G25A, U27G, A30C, A31G
DNA 1: CAATCTGAATTCCGGTCTCCC
DNA 2: TGGTGGCTACGACGGGATT
B14: AGCGAGC (DNA:RNA)
RNA: GGGAGACCGGAAUUCAGAUUGUCCAGCGAGCUUAAAUCCCGUCGUAGCCACCA
DNA 1: CAATCTGAATTCCGGTCTCCC
DNA 2: TGGTGGCTACGACGGGATT
B15: UUGCACC (DNA:RNA)
RNA: B14 RNA with A25U, G26U, C27G, G28C, G30C
DNA 1: CAATCTGAATTCCGGTCTCCC
DNA 2: TGGTGGCTACGACGGGATT
B16: GACAUAG (DNA:RNA)
RNA: B1 RNA with U27C, U28A, G29U, A31G
DNA 1: CAATCTGAATTCCGGTCTCCC
DNA 2: TGGTGGCTACGACGGGATT
B17: GAUAGGG (DNA:RNA)
RNA: B1 RNA with U28A, A30G, A31G
DNA 1: CAATCTGAATTCCGGTCTCCC
DNA 2: TGGTGGCTACGACGGGATT
B18: GGGUAUU (DNA:RNA)
RNA: B14 RNA with A25G, C27G, G28U, G30U, C31U
DNA 1: CAATCTGAATTCCGGTCTCCC
DNA 2: TGGTGGCTACGACGGGATT
B19: UCUGCAU (DNA:RNA)
RNA: B1 RNA with G25U, A26C, U28G, G29C, A31U
DNA 1: CAATCTGAATTCCGGTCTCCC
DNA 2: TGGTGGCTACGACGGGATT
B20: AGUCGGG (DNA:RNA)
RNA: B14 RNA with C27U, G28C, A29G, C31G
DNA 1: CAATCTGAATTCCGGTCTCCC
DNA 2: TGGTGGCTACGACGGGATT
B21: GCUGGGC (DNA:RNA)
RNA: B14 RNA with A25G, G26C, C27U, A29G
DNA 1: CAATCTGAATTCCGGTCTCCC
DNA 2: TGGTGGCTACGACGGGATT
B22: UCCGCAU (DNA:RNA)
RNA: B14 RNA with A25U, G26C, A29C, G30A, C31U
DNA 1: CAATCTGAATTCCGGTCTCCC
DNA 2: TGGTGGCTACGACGGGATT
B23: CAGAAUC (DNA:RNA)
RNA: B14 RNA with A25C, G26A, C27G, G28A, G30U
DNA 1: CAATCTGAATTCCGGTCTCCC
DNA 2: TGGTGGCTACGACGGGATT
B24: ACGAGAC (DNA:RNA)
RNA: B14 RNA with G26C, C27G, G28A, A29G, G30A
DNA 1: CAATCTGAATTCCGGTCTCCC
DNA 2: TGGTGGCTACGACGGGATT
B25: GACCGAA (DNA:RNA)
RNA: B1 RNA with U27C, U28C
DNA 1: CAATCTGAATTCCGGTCTCCC
DNA 2: TGGTGGCTACGACGGGATT
B26: AGCGAAU (DNA:RNA)
RNA: B14 RNA with G30A, C31U
DNA 1: CAATCTGAATTCCGGTCTCCC
DNA 2: TGGTGGCTACGACGGGATT
B27: GCAGGCC (DNA:RNA)
RNA: B14 RNA with A25G, G26C, C27A, A29G, G30C
DNA 1: CAATCTGAATTCCGGTCTCCC
DNA 2: TGGTGGCTACGACGGGATT
B28: UGUCCGA (DNA:RNA)
RNA: B14 RNA with A25U, C27U, G28C, A29C, C31A
DNA 1: CAATCTGAATTCCGGTCTCCC
DNA 2: TGGTGGCTACGACGGGATT
B29: CGGUGUG (DNA:RNA)
RNA: B1 RNA with G25C, A26G, U27G, A30U, A31G
DNA 1: CAATCTGAATTCCGGTCTCCC
DNA 2: TGGTGGCTACGACGGGATT
B30: CUCUGGU (DNA:RNA)
RNA: B14 RNA with A25C, G26U, G28U, A29G, C31U
DNA 1: CAATCTGAATTCCGGTCTCCC
DNA 2: TGGTGGCTACGACGGGATT
B31: AACGUCU (DNA:RNA)
RNA: B14 RNA with G26A, A29U, G30C, C31U
DNA 1: CAATCTGAATTCCGGTCTCCC
DNA 2: TGGTGGCTACGACGGGATT

What follows are binders tested against T1, RBFOX1 RRM (assay: EMSA; HiTS-Eq, 1 nM pool, 10 min; buffer printed only for the single-RNA assays: 10 mM Tris pH 7.5, 150 mM NaCl, 3.4 mM EDTA, 0.001% NP-40, 30 C). Conditions: tags: His6 N-terminal (pET28a); label: 5' 32P.
Outline: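 Purified wild-type or mutant RbFox RRM at increasing concentrations was equilibrated with 1 nM of 5′-radiolabelled RNA carrying 7 randomized nucleotides for 10 min in 50 µL. Unbound RNA was separated by 8% native PAGE and sequenced. Relative association constants came from read-count changes of each RNA species compared with the control reaction, normalised to the cognate motif.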
In the case of B1, the binding signal is reported as 0.0181 KA relative to UGCAUGU. For B2, the binding signal was 0.0261 KA relative to UGCAUGU. B3 was tested, and the binding signal was 0.00929 KA relative to UGCAUGU. With B4 the binding signal was 0.0126 KA relative to UGCAUGU. B5 was tested, and the binding signal was 0.00589 KA relative to UGCAUGU. In the case of B6, the binding signal is reported as 0.00846 KA relative to UGCAUGU. With B7 the binding signal was 0.0119 KA relative to UGCAUGU. With B8 the binding signal was 0.018 KA relative to UGCAUGU. With B9 the binding signal was 0.00336 KA relative to UGCAUGU. In the case of B10, the binding signal is reported as 0.00307 KA relative to UGCAUGU. B11 was tested, and the binding signal was 0.00988 KA relative to UGCAUGU. In the case of B12, the binding signal is reported as 0.00429 KA relative to UGCAUGU. B13 was tested, and the binding signal was 0.0112 KA relative to UGCAUGU. B14 was tested, and the binding signal was 0.0124 KA relative to UGCAUGU. B15 was tested, and the binding signal was 0.0149 KA relative to UGCAUGU. In the case of B16, the binding signal is reported as 0.0106 KA relative to UGCAUGU. For B17, the binding signal was 0.0066 KA relative to UGCAUGU. With B18 the binding signal was 0.0125 KA relative to UGCAUGU. In the case of B19, the binding signal is reported as 0.0205 KA relative to UGCAUGU. In the case of B20, the binding signal is reported as 0.00732 KA relative to UGCAUGU. For B21, the binding signal was 0.0189 KA relative to UGCAUGU. With B22 the binding signal was 0.012 KA relative to UGCAUGU. With B23 the binding signal was 0.00729 KA relative to UGCAUGU. In the case of B24, the binding signal is reported as 0.00391 KA relative to UGCAUGU. With B25 the binding signal was 0.00805 KA relative to UGCAUGU. In the case of B26, the binding signal is reported as 0.0102 KA relative to UGCAUGU. With B27 the binding signal was 0.0146 KA relative to UGCAUGU. For B28, the binding signal was 0.0182 KA relative to UGCAUGU. With B29 the binding signal was 0.0206 KA relative to UGCAUGU. B30 was tested, and the binding signal was 0.0162 KA relative to UGCAUGU. In the case of B31, the binding signal is reported as 0.00544 KA relative to UGCAUGU.
